In the supplement of paper PMC4604168 (melanoma cell lines):
The list shows a part of the results. Many values rest on one well or one pass, so single values are uncertain.

How the values were obtained:
Assay in all cases: cell count relative to DMSO control; melanoma cells; higher = more viable cells
MeWo = details: library dose: low library concentration; 72 h
RPMI7951 = details: library dose: low library concentration; 72 h
RVH-421 = details: library dose: low library concentration; 72 h
SkMel28 = details: library dose: low library concentration; 72 h
SkMel2 = details: library dose: low library concentration; 72 h
SkMel30 = details: library dose: low library concentration; 72 h
SkMel5 = details: library dose: low library concentration; 72 h
UACC257 = details: library dose: low library concentration; 72 h
UACC62 = details: library dose: low library concentration; 72 h
WM115 = details: library dose: low library concentration; 72 h
WM1716 = details: library dose: low library concentration; 72 h
WM1745 = details: library dose: low library concentration; 72 h
WM3526 = details: library dose: low library concentration; 72 h
WM3619 = details: library dose: low library concentration; 72 h
WM451Lu = details: library dose: low library concentration; 72 h
MZ2-MEL = details: library dose: low library concentration; 72 h
501Mel = details: library dose: standard library concentration; 72 h
A101D = details: library dose: standard library concentration; 72 h
A2058 = details: library dose: standard library concentration; 72 h
A375 = details: library dose: standard library concentration; 72 h

| Compound | cell count (MeWo) [%] | cell count (RPMI7951) [%] | cell count (RVH-421) [%] | cell count (SkMel28) [%] | cell count (SkMel2) [%] | cell count (SkMel30) [%] | cell count (SkMel5) [%] | cell count (UACC257) [%] | cell count (UACC62) [%] | cell count (WM115) [%] | cell count (WM1716) [%] | cell count (WM1745) [%] | cell count (WM3526) [%] | cell count (WM3619) [%] | cell count (WM451Lu) [%] | cell count (MZ2-MEL) [%] | cell count (501Mel) [%] | cell count (A101D) [%] | cell count (A2058) [%] | cell count (A375) [%] |
| --- | --- | --- | --- | --- | --- | --- | --- | --- | --- | --- | --- | --- | --- | --- | --- | --- | --- | --- | --- | --- |
| CC(C)C[C@H](NC(=O)[C@H](Cc1ccccc1)NC(=O)c1cnccn1)B(O)O [Bortezomib] + Cc1cc(SCc2sc(-c3ccc(C(F)(F)F)c(F)c3)nc2C)ccc1OCC(=O)O [GW0742] (first compound 0.001 µM, partner dose 2 µM) | 83.2 | 63.7 | 43.1 | 102 | 104 | 87.3 | 94.2 | 67.8 | 72.3 | 94.8 | 20.4 | 79.8 | 111 | 19.4 | 95.2 |  |  |  |  |  |
| COc1cc(N2CCC(N3CCN(C)CC3)CC2)ccc1Nc1ncc(Cl)c(Nc2ccccc2S(=O)(=O)C(C)C)n1 + O=C(Oc1ccc([N+](=O)[O-])cc1)N1CCC(C(O)(c2ccc3c(c2)OCO3)c2ccc3c(c2)OCO3)CC1 [JZL184] (first compound 0.08 µM, partner dose 1 µM) | 85.2 | 90.3 | 80.6 | 79.8 |  | 94.3 | 81.1 | 99.8 | 108 | 94 | 87.6 | 84.2 | 88 | 83.7 | 66.6 | 109 |  |  |  |  |
| COCC[n+]1c2c(n(Cc3cnccn3)c1C)C(=O)c1ccccc1C2=O + O=C(Oc1ccc([N+](=O)[O-])cc1)N1CCC(C(O)(c2ccc3c(c2)OCO3)c2ccc3c(c2)OCO3)CC1 [JZL184] (first compound 0.0004 µM, partner dose 1 µM) | 92.9 | 78.2 | 83.1 | 104 |  | 111 | 73.4 | 83.8 | 86 | 86.5 | 83.2 | 92.4 | 88.4 | 105 | 80.1 |  |  |  |  |  |
| C=CCn1c(=O)c2cnc(Nc3ccc(N4CCN(C)CC4)cc3)nc2n1-c1cccc(C(C)(C)O)n1 + Cc1cc(SCc2sc(-c3ccc(C(F)(F)F)c(F)c3)nc2C)ccc1OCC(=O)O [GW0742] (first compound 0.02 µM, partner dose 2 µM) | 86.2 | 112 | 113 | 73.9 |  | 84.4 | 82.2 | 79 | 80.3 | 78 | 80.4 | 82.6 | 69.2 | 94.3 | 105 | 97.1 |  |  |  |  |
| CO[C@H]1C[C@@H]2CC[C@@H](C)[C@@](O)(O2)C(=O)C(=O)N2CCCC[C@H]2C(=O)O[C@H]([C@H](C)C[C@@H]2CC[C@@H](OCCO)[C@H](OC)C2)CC(=O)[C@H](C)/C=C(\C)[C@@H](O)[C@@H](OC)C(=O)[C@H](C)C[C@H](C)/C=C/C=C/C=C/1C [everolimus] + C/C(O)=C(\C#N)C(=O)Nc1cc(Br)ccc1Br [LFM-A13] (first compound 0.02 µM, partner dose 2 µM) | 67.6 | 88.3 | 84.2 | 52.4 |  | 64 | 115 | 65.7 | 92.7 | 80.2 | 73.4 | 81.6 | 70.6 | 73 | 82 | 78 |  |  |  |  |
| C[C@@H]1CCN(C(=O)CC#N)C[C@@H]1N(C)c1ncnc2[nH]ccc12 + Cc1cc(SCc2sc(-c3ccc(C(F)(F)F)c(F)c3)nc2C)ccc1OCC(=O)O [GW0742] (first compound 1 µM, partner dose 2 µM) | 98.3 | 100 | 98 | 104 |  | 106 | 109 | 128 | 91.3 | 102 | 101 | 100 | 133 | 108 | 116 | 103 |  |  |  |  |
| Clc1ccc(Nc2nnc(Cc3ccncc3)c3ccccc23)cc1 [vatalanib] + Cc1cc(SCc2sc(-c3ccc(C(F)(F)F)c(F)c3)nc2C)ccc1OCC(=O)O [GW0742] (first compound 2 µM, partner dose 2 µM) | 93.8 | 106 | 110 | 98.5 | 106 | 96.2 | 102 | 84.1 | 93.6 | 112 | 117 | 83.3 | 90.8 | 99.3 | 108 |  |  |  |  |  |
| Cn1c(Nc2ccc(C(F)(F)F)cc2)nc2cc(Oc3ccnc(-c4ncc(C(F)(F)F)[nH]4)c3)ccc21 + O=C(Oc1ccc([N+](=O)[O-])cc1)N1CCC(C(O)(c2ccc3c(c2)OCO3)c2ccc3c(c2)OCO3)CC1 [JZL184] (first compound 0.08 µM, partner dose 1 µM) | 68.9 | 62.7 | 69.2 | 57.2 |  | 52.8 | 69.7 | 37.3 | 50.7 | 51.5 | 73.4 | 75.9 | 33 | 56.2 | 75.6 |  |  |  |  |  |
| CN1CCN(c2ccc3nc(-c4c(N)c5c(F)cccc5[nH]c4=O)[nH]c3c2)CC1 [Dovitinib] + Cc1cc(SCc2sc(-c3ccc(C(F)(F)F)c(F)c3)nc2C)ccc1OCC(=O)O [GW0742] (first compound 0.1 µM, partner dose 2 µM) | 108 | 99.8 | 111 | 94.4 | 109 | 112 | 89.4 | 89.3 | 102 | 98.1 | 117 | 87.7 | 102 | 80.2 | 94.9 |  |  |  |  |  |
| C[C@@H]1CCN(C(=O)CC#N)C[C@@H]1N(C)c1ncnc2[nH]ccc12 + C/C(O)=C(\C#N)C(=O)Nc1cc(Br)ccc1Br [LFM-A13] (first compound 1 µM, partner dose 2 µM) | 103 | 83.6 | 84.1 | 88 |  | 97.5 | 90.8 | 92.4 | 90.8 | 97.6 | 94.8 | 88.5 | 101 | 95.2 | 116 | 102 |  |  |  |  |
| COCC[n+]1c2c(n(Cc3cnccn3)c1C)C(=O)c1ccccc1C2=O + C/C(O)=C(\C#N)C(=O)Nc1cc(Br)ccc1Br [LFM-A13] (first compound 0.0004 µM, partner dose 2 µM) | 84.6 | 103 | 95.5 | 79.8 |  | 98.7 | 86.5 | 106 | 79.6 | 99.7 | 97.8 | 91.9 | 108 | 125 | 92 | 68.8 |  |  |  |  |
| O=C(CCCCCCC(=O)Nc1ccccc1)NO [vorinostat] + Cc1cc(SCc2sc(-c3ccc(C(F)(F)F)c(F)c3)nc2C)ccc1OCC(=O)O [GW0742] (first compound 0.08 µM, partner dose 2 µM) | 108 | 84.4 | 616 | 72.8 |  | 107 | 89.7 | 118 | 93 | 97.2 | 100 | 96.8 | 130 | 95.9 | 114 | 102 |  |  |  |  |
| C#Cc1cccc(Nc2ncnc3cc(OCCOC)c(OCCOC)cc23)c1 [erlotinib] + C/C(O)=C(\C#N)C(=O)Nc1cc(Br)ccc1Br [LFM-A13] (first compound 0.8 µM, partner dose 2 µM) | 104 | 87.6 | 105 | 61 |  | 91.8 | 105 | 84.7 | 89.1 | 90.9 | 92.7 | 77.8 | 95.8 | 112 | 101 | 95 |  |  |  |  |
| O=C(O)c1ccc2c(c1)nc(Nc1cccc(Cl)c1)c1ccncc12 + C/C(O)=C(\C#N)C(=O)Nc1cc(Br)ccc1Br [LFM-A13] (first compound 0.4 µM, partner dose 2 µM) | 95.6 | 93.4 | 105 | 88.9 |  | 86.5 | 89.5 | 74.3 | 84 | 99.3 | 86 | 87.1 | 71 | 97.6 | 81.3 |  |  |  |  |  |
| Oc1nc(-c2ccc(C(F)(F)F)cc2)nc2c1CSCC2 + O=C(Oc1ccc([N+](=O)[O-])cc1)N1CCC(C(O)(c2ccc3c(c2)OCO3)c2ccc3c(c2)OCO3)CC1 [JZL184] (first compound 2 µM, partner dose 1 µM) | 110 | 94.4 | 77.1 | 87.2 |  | 97.7 | 88.4 | 89.1 | 102 | 108 | 69.7 | 70.4 | 90.2 | 95.1 | 114 | 101 |  |  |  |  |
| C[C@@H]1CCN(C(=O)CC#N)C[C@@H]1N(C)c1ncnc2[nH]ccc12 + O=C(Oc1ccc([N+](=O)[O-])cc1)N1CCC(C(O)(c2ccc3c(c2)OCO3)c2ccc3c(c2)OCO3)CC1 [JZL184] (first compound 1 µM, partner dose 1 µM) | 106 | 102 | 94.1 | 106 |  | 93 | 93.4 | 87.5 | 83.1 | 100 | 93.7 | 94.2 | 102 | 130 | 107 |  |  |  |  |  |
| C=CCn1c(=O)c2cnc(Nc3ccc(N4CCN(C)CC4)cc3)nc2n1-c1cccc(C(C)(C)O)n1 + Cc1cc(SCc2sc(-c3ccc(C(F)(F)F)c(F)c3)nc2C)ccc1OCC(=O)O [GW0742] (first compound 0.1 µM, partner dose 10 µM) |  |  |  |  |  |  |  |  |  |  |  |  |  |  |  |  | 73.4 | 66.3 | 87.5 | 62.4 |
| Clc1ccc(Nc2nnc(Cc3ccncc3)c3ccccc23)cc1 [vatalanib] + O=C(Oc1ccc([N+](=O)[O-])cc1)N1CCC(C(O)(c2ccc3c(c2)OCO3)c2ccc3c(c2)OCO3)CC1 [JZL184] (first compound 10 µM, partner dose 5 µM) |  |  |  |  |  |  |  |  |  |  |  |  |  |  |  |  | 65.2 | 78 | 94.2 | 102 |
| O=C(CCCCCCC(=O)Nc1ccccc1)NO [vorinostat] + Cc1cc(SCc2sc(-c3ccc(C(F)(F)F)c(F)c3)nc2C)ccc1OCC(=O)O [GW0742] (first compound 0.4 µM, partner dose 10 µM) |  |  |  |  |  |  |  |  |  |  |  |  |  |  |  |  | 70.1 | 98 | 84.1 | 122 |
| O=C(O)c1ccc2c(c1)nc(Nc1cccc(Cl)c1)c1ccncc12 + Cc1cc(SCc2sc(-c3ccc(C(F)(F)F)c(F)c3)nc2C)ccc1OCC(=O)O [GW0742] (first compound 2 µM, partner dose 10 µM) |  |  |  |  |  |  |  |  |  |  |  |  |  |  |  |  | 96.3 | 73.4 | 85.1 | 104 |
| c1cc(-c2cnn3cc(-c4ccc(OCCN5CCCCC5)cc4)cnc23)ccn1 [Dorsomorphin] + O=C(Oc1ccc([N+](=O)[O-])cc1)N1CCC(C(O)(c2ccc3c(c2)OCO3)c2ccc3c(c2)OCO3)CC1 [JZL184] (first compound 2 µM, partner dose 5 µM) |  |  |  |  |  |  |  |  |  |  |  |  |  |  |  |  | 43.9 | 83.7 | 86.1 | 80.2 |
